# Measured values reported in PubChem BioAssay (Tox21).
# Where “and” joins values, the source holds several entries; their conditions need not be identical. Equal values may be shown once. The inconclusive results got no clear call from the source; some entries with a clear call stand among them for comparison. Potencies of inconclusive entries are doubtful fits and often do not repeat. The source holds several records for some structures; these can differ, active in one and inactive in another. Calls of active or inactive are those of the source. Calls follow the shape of the dose curve; as a rule, active = well fitted curve in the direction sought with a large enough effect in the repeat runs; inconclusive = weak or mixed curves; inactive = no such curve, though single readings can be large; an effect the other way counts as inactive or inconclusive.
# Key:
# [1] = A CellTox Green Cytotoxicity Assay to monitor cytotoxicity in HepG2 cells - 16 hour (AID 1224876); also: nearly all actives have a fitted effect of over 45% in size
# Outline: (§1)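 Using 1536-well format, dye-containing HepG2 suspension was seeded, allowed 5 h at 37 C/5% CO2, dosed by pintool with compounds, positive and negative controls, and imaged for fluorescence across 40 h.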
# [2] = A CellTox Green Cytotoxicity Assay to monitor cytotoxicity in HepG2 cells - 24 hour (AID 1224878); also: nearly all actives have a fitted effect of over 45% in size
# Outline: as §1
# [3] = A CellTox Green Cytotoxicity Assay to monitor cytotoxicity in HepG2 cells - 40 hour (AID 1224879); also: nearly all actives have a fitted effect of over 40% in size
# Outline: as §1
# [4] = A CellTox Green Cytotoxicity Assay to monitor cytotoxicity in HEK293 cells - 8 hour (AID 1224884); also: nearly all actives have a fitted effect of over 35% in size
# Outline: (§2)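 Fluorescence intensity, read at 0, 8, 16, 24, 32 and 40 h of compound treatment, reflected dye binding to DNA of dead HEK293 cells; compounds (23 nL, DMSO) were added 5 h after plating cells with reagent.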
# [5] = qHTS RealTime-Glo MT Cell Viability Assay in HEK293 cells - 0 hour (AID 1224880); also: nearly all actives have a fitted effect of over 45% in size
# Outline: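 Viable HEK293 cells reduce a cell-permeant prosubstrate; the product diffuses out and is consumed by NanoLuc in the medium to give light. Compounds went in after a 5 h incubation and plates were read over the treatment course.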
# [6] = A CellTox Green Cytotoxicity Assay to monitor cytotoxicity in HepG2 cells - 32 hour (AID 1224883); also: nearly all actives have a fitted effect of over 50% in size
# Outline: as §1
# [7] = qHTS RealTime-Glo MT Cell Viability Assay in HepG2 cells - 32 hour (AID 1224877); also: nearly all actives have a fitted effect of over 55% in size
# Outline: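 HepG2 suspension premixed with RealTime-Glo reagents is plated at 600 cells per well and left 5 h at 37 C/5% CO2. Compounds in DMSO then go in, and bioluminescence reflecting viable cell number is recorded over 40 h.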
# [8] = A CellTox Green Cytotoxicity Assay to monitor cytotoxicity in HEK293 cells - 32 hour (AID 1224881); also: nearly all actives have a fitted effect of over 40% in size
# Outline: as §2
# [9] = A CellTox Green Cytotoxicity Assay to monitor cytotoxicity in HepG2 cells - 0 hour (AID 1224882); also: nearly all actives have a fitted effect of over 35% in size
# Outline: as §1
# Potency is read from the fitted curve at half-maximal effect; tags tell the direction and shape of the fitted curve.
smiles,measurement,setting,value
O=[N+]([O-])c1c(Cl)c(Cl)cc(Cl)c1Cl,Potency,[1],"inconclusive: 54.9 µM [activator, single point]"
same,Potency,[2],"inconclusive: 49 µM [activator, partial curve, poor fit]"
same,Potency,[3],active: 54.9 µM
same,Potency,[4],"inconclusive: 54.9 µM [activator, single point]"
C[C@]12CCC(=O)C[C@@H]1CC[C@@H]1[C@@H]2CC[C@]2(C)[C@@H](O)CC[C@@H]12,Potency,[1],inactive
same,Potency,[3],"inconclusive: 54.3 µM [activator, single point] and inconclusive: 12.3 µM [activator, partial curve]"
same,Potency,[4],"inconclusive: 31 µM [activator, partial curve, poor fit]"
c1ccc(NNc2ccccc2)cc1,Potency,[1],"inconclusive: 49.4 µM [activator, single point]"
same,Potency,[3],"inconclusive: 49.4 µM [activator, single point]"
same,Potency,[5],"inconclusive: 49 µM [falling, partial curve, poor fit]"
same,Potency,[6],"inconclusive: 49.4 µM [activator, single point] and inactive"
NC(=O)OCCCc1ccccc1,Potency,[7],inactive
[Cl-].[Cl-].[Hg+2],Potency,[1],active: 38.7 µM and active: 3.89 µM
same,Potency,[2],active: 24.4 µM and active: 3.89 µM
same,Potency,[3],active: 24.4 µM and active: 2.45 µM
same,Potency,[5],"inconclusive: 61.6 µM [falling, single point]"
same,Potency,[8],active: 21.8 µM and active: 6.92 µM
same,Potency,[4],active: 15.5 µM
CC(C)(C)CC(C)(C)c1ccc(O)cc1,Potency,[1],active: 27.5 µM and active: 10.7 µM
same,Potency,[6],active: 27.5 µM and active: 15.1 µM
same,Potency,[4],active: 15.5 µM and active: 12 µM
Nc1ccccc1C(=O)OCCc1ccccc1,Potency,[1],"inconclusive: 49.2 µM [activator, single point]"
same,Potency,[3],"inconclusive: 55.2 µM [activator, single point]"
same,Potency,[8],"inconclusive: 61.9 µM [activator, single point] and active: 21.9 µM"
same,Potency,[9],"inconclusive: 24.5 µM [activator, partial curve]"
same,Potency,[6],"inconclusive: 49.2 µM [activator, single point]"
same,Potency,[4],active: 34.7 µM
O=c1ssc(Cl)c1Cl,Potency,[1],active: 19.5 µM
same,Potency,[2],active: 19.5 µM
same,Potency,[3],active: 19.5 µM
same,Potency,[5],active: 24.5 µM
same,Potency,[4],"inconclusive: 34.7 µM [activator, partial curve, poor fit]"
O=[N+]([O-])c1ccc(Cl)c([N+](=O)[O-])c1,Potency,[1],active: 39.5 µM and active: 54.9 µM
same,Potency,[3],active: 39.5 µM and active: 24.5 µM
same,Potency,[8],active: 19.8 µM and active: 24.5 µM
same,Potency,[6],active: 35.2 µM and active: 24.5 µM
C=CC(=O)[O][Sn]([CH2]CCC)([CH2]CCC)[CH2]CCC,Potency,[1],active: 0.616 µM
same,Potency,[3],active: 0.549 µM
same,Potency,[5],"inconclusive: 21.9 µM [rising, partial curve]"
same,Potency,[4],active: 21.9 µM
CCCCCCCCCCCCOS(=O)(=O)O,Potency,[1],"inconclusive: 54.2 µM [activator, single point] and inconclusive: 49 µM [activator, partial curve, poor fit]"
same,Potency,[3],"inconclusive: 54.2 µM [activator, single point] and inconclusive: 54.9 µM [activator, single point]"
same,Potency,[8],"inconclusive: 34.7 µM [activator, partial curve, poor fit]"
same,Potency,[6],"inconclusive: 54.2 µM [activator, single point] and inconclusive: 49 µM [activator, partial curve, poor fit] and inconclusive: 54.9 µM [activator, single point]"
same,Potency,[4],active: 48.3 µM
Cc1ccc(N(SC(F)(Cl)Cl)S(=O)(=O)N(C)C)cc1,Potency,[1],active: 17.4 µM
same,Potency,[2],active: 11 µM
same,Potency,[3],active: 6.92 µM
same,Potency,[4],active: 21.9 µM
CCOC(=O)C(O)(c1ccc(Cl)cc1)c1ccc(Cl)cc1,Potency,[1],"inconclusive: 38.9 µM [activator, partial curve]"
same,Potency,[6],active: 43.6 µM
CCC(C)(C)c1ccc(O)cc1,Potency,[1],"inconclusive: 23.9 µM [activator, single point]"
same,Potency,[2],active: 49.5 µM and active: 43.6 µM and active: 23.9 µM
same,Potency,[4],"inconclusive: 62.3 µM [activator, single point] and inconclusive: 54.9 µM [activator, single point]"
CO/N=C(\C(=O)OC)c1ccccc1CO/N=C(\C)c1cccc(C(F)(F)F)c1,Potency,[7],inactive
CCCCCCCCCc1ccc(O)cc1,Potency,[1],"active: 39.3 µM and inconclusive: 61.7 µM [activator, single point]"
same,Potency,[3],"inconclusive: 24.5 µM [activator, partial curve]"
same,Potency,[8],"inconclusive: 44.1 µM [activator, partial curve, poor fit]"
same,Potency,[6],active: 39.3 µM and active: 34.7 µM
same,Potency,[4],"inconclusive: 43.6 µM [activator, partial curve, poor fit]"
CCCCC(CC)COC(=O)Cl (stereo not drawn),Potency,[1],"inconclusive: 49 µM [activator, single point]"
same,Potency,[3],"inconclusive: 43.6 µM [activator, partial curve, poor fit]"
same,Potency,[9],"inconclusive: 27.5 µM [activator, partial curve, poor fit]"
CCO/N=C(\CC)C1=C(O)CC(c2c(C)cc(C)cc2C)CC1=O (stereo not drawn),Potency,[1],"inconclusive: 61.6 µM [activator, single point]"
same,Potency,[2],"inconclusive: 61.6 µM [activator, single point]"
same,Potency,[3],"inconclusive: 61.6 µM [activator, single point]"
same,Potency,[5],"inconclusive: 61.6 µM [falling, partial curve, poor fit]"
same,Potency,[6],"inconclusive: 61.6 µM [activator, single point]"
C#CC1(O)CCCCC1,Potency,[1],"inconclusive: 61.6 µM [activator, single point]"
same,Potency,[2],"inconclusive: 61.6 µM [activator, single point]"
same,Potency,[3],"inconclusive: 61.6 µM [activator, single point]"
same,Potency,[6],"inconclusive: 54.9 µM [activator, single point]"
CCC(C)(c1ccc(O)cc1)c1ccc(O)cc1,Potency,[1],"inconclusive: 54.9 µM [activator, single point]"
same,Potency,[2],"inconclusive: 54.9 µM [activator, single point]"
same,Potency,[3],"inconclusive: 54.9 µM [activator, single point]"
same,Potency,[6],"inconclusive: 54.9 µM [activator, single point]"
CC(C)Oc1cccc(NC(=O)c2ccccc2C(F)(F)F)c1,Potency,[1],active: 43.6 µM
same,Potency,[3],active: 43.6 µM
same,Potency,[6],active: 43.6 µM
CN(C)S(=O)(=O)N(SC(F)(Cl)Cl)c1ccccc1,Potency,[1],active: 12.3 µM
same,Potency,[3],active: 4.9 µM
CCC(C)c1cccc(C(C)CC)c1O (stereo not drawn),Potency,[1],active: 17.4 µM
same,Potency,[8],active: 30.9 µM
same,Potency,[6],active: 19.5 µM
C[C@]12C=CC3=C4CCC(=O)C=C4CC[C@H]3[C@@H]1CC[C@@H]2O,Potency,[1],"inconclusive: 0.585 µM [activator, partial curve, poor fit]"
same,Potency,[2],"inconclusive: 0.585 µM [activator, partial curve, poor fit]"
same,Potency,[3],"inconclusive: 0.585 µM [activator, partial curve, poor fit]"
same,Potency,[6],"inactive and inconclusive: 585 nM [activator, partial curve, poor fit]"
CCOP(=S)(OCC)Oc1nc(Cl)c(Cl)cc1Cl,Potency,[1],inactive
same,Potency,[3],"inconclusive: 21.9 µM [activator, partial curve, poor fit]"
same,Potency,[4],"inconclusive: 55.1 µM [activator, single point] and inconclusive: 77.6 µM [activator, partial curve, poor fit]"
CCCCOCCOP(=O)(OCCOCCCC)OCCOCCCC,Potency,[1],"inconclusive: 55 µM [activator, partial curve, poor fit]"
same,Potency,[2],"inconclusive: 55 µM [activator, single point] and inconclusive: 38.9 µM [activator, partial curve, poor fit]"
same,Potency,[3],"inconclusive: 55 µM [activator, single point] and inconclusive: 49 µM [activator, partial curve, poor fit]"
same,Potency,[6],"inconclusive: 55 µM [activator, single point]"
Cc1cc(-c2ccc(N)c(C)c2)ccc1N,Potency,[1],"inconclusive: 49 µM [activator, single point]"
same,Potency,[2],"inconclusive: 43 µM [activator, partial curve, poor fit]"
same,Potency,[3],"inconclusive: 43 µM [activator, partial curve, poor fit]"
same,Potency,[9],"inconclusive: 54.9 µM [activator, single point]"
CN(C)C(=S)S,Potency,[1],inactive and active: 34.7 µM
same,Potency,[2],active: 22.3 µM and active: 5.45 µM and active: 15.5 µM
same,Potency,[6],active: 17.7 µM and active: 5.45 µM and active: 11 µM
O=C(Nc1ccc2[nH]ccc2c1)c1cc2cc(F)ccc2n1Cc1cccc(F)c1,Potency,[7],"inconclusive: 38.9 µM [cytotoxic, partial curve]"
